# Where “and” joins values, the source holds several entries; their conditions need not be identical. Equal entries are not always repeated. This list was built around the results that the source calls inconclusive (neither active nor inactive); the mix of calls is not that of the screen. A potency beside an inconclusive call is a rough fit, not a confirmed value. Calls of active or inactive are those of the source. The call rests on the fitted dose curve; in most records, active means well fitted curve in the direction sought with a large enough effect; inconclusive means small, poorly fitted or top-dose-only effect, or another doubt; inactive means no such curve, though single readings can be large; an effect the other way counts as inactive or inconclusive.
# Experiment: qHTS Assay for Identifying Gametocytocidal Compounds (AID 743244);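 on max response: on the % scale 0 is the no-effect control and ±100 the full control effect; actives lower the fluorescent signal which means gametocytes are killed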
# Details: P. falciparum 3D7 stage III-V gametocytes, alamarBlue, 72 h; max response: active compounds read low
# Procedure, shortened: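 Using 20,000 stage III–V 3D7 gametocytes per well, compounds were incubated 72 h under 37 °C/5% CO2. Viability was then assessed by 24 h alamarBlue reduction, measured fluorometrically at 525/598 nm.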
# Potency means the concentration at half of the fitted maximal effect; tags describe the fitted curve by direction and shape.
SMILES,Potency,max response
COc1cc2c(N3CCN(C(=O)Nc4ccc(OC(C)C)cc4)CC3)ncnc2cc1OCCCN1CCCCC1,"inconclusive: 37.2 µM [inhibitor, single point] and inconclusive: 35.5 µM [inhibitor, single point]",
CC(C)(C)c1cc(NC(=O)Nc2ccc(-c3cn4c(n3)sc3cc(OCCN5CCOCC5)ccc34)cc2)no1,"inconclusive: 118 µM [inhibitor, partial curve, poor fit]",
Nc1nc(N)nc(-c2cc(Cl)ccc2Cl)n1,,inactive: 11.2%
N[C@@H](Cc1ccc(O)c(O)c1)C(=O)O,"inconclusive: 17.8 µM [inhibitor, single point]",
CC1(C)O[C@H]2CC(=O)OC[C@]23[C@H]2CC[C@@]4(C)[C@H](c5ccoc5)OC(=O)[C@H]5O[C@]54[C@]2(C)C(=O)C[C@@H]13,,inactive: 0.83%
CC(C)c1nc(CN(C)C(=O)N[C@H](C(=O)N[C@@H](Cc2ccccc2)C[C@H](O)[C@H](Cc2ccccc2)NC(=O)OCc2cncs2)C(C)C)cs1,"inconclusive: 6.31 µM [inhibitor, full curve]",inactive: -4.83%
COc1cccc(N(C)C(=S)Oc2ccc3c(c2)CCCC3)n1,,inactive: -0.766%
CCOC(=O)[C@H](CCc1ccccc1)N[C@H]1CCc2ccccc2N(CC(=O)O)C1=O,"inconclusive: 15.8 µM [inhibitor, single point]",

# Experiment: qHTS Screen of the MIPE 4.0 Collection Against Ewings Sarcoma (TC71) (AID 1259253); further: nearly all actives have a fitted effect of over 40% in size;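 on viability (% of DMSO): 100% = DMSO-treated cells and 0% = medium-only wells without cells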
# Details: TC71 Ewing sarcoma viability, CellTiter-Glo, 48 h; series mostly up to 45.8 µM; viability (% of DMSO): at the top concentration
# Procedure, shortened: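 Measured: ATP luminescence (CellTiter-Glo) 10 min after reagent addition, following 48 h drug treatment. Relative luciferase units converted to percent activity, with no-cell wells as full and DMSO wells as zero inhibition.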
SMILES,Potency,viability (% of DMSO)
COc1cc2c(N3CCN(C(=O)Nc4ccc(OC(C)C)cc4)CC3)ncnc2cc1OCCCN1CCCCC1,"inconclusive: 23.5 µM [inhibitor, partial curve]",
CC(C)(C)c1cc(NC(=O)Nc2ccc(-c3cn4c(n3)sc3cc(OCCN5CCOCC5)ccc34)cc2)no1,,inactive: 107%
CCc1ccc(CCOc2ccc(CC3SC(=O)NC3=O)cc2)nc1 (stereo not drawn),active: 0.296 µM,
COc1cc2ncnc(Nc3ccc(F)c(Cl)c3)c2cc1NC(=O)C=CCN1CCCCC1,active: 2.09 µM,
CC(C)(O)CCc1ccc(OCc2cc(-c3cccc(OC(F)F)c3)c3ncccc3c2)cc1,,inactive: 116%
Cc1cn([C@H]2C[C@H](N=[N+]=[N-])[C@@H](CO)O2)c(=O)[nH]c1=O,,inactive: 123%
Nc1nc(N)nc(-c2cc(Cl)ccc2Cl)n1,,inactive: 107%
N[C@@H](Cc1ccc(O)c(O)c1)C(=O)O,,inactive: 130%
O=C(C=Cc1c(C(=O)O)[nH]c2cc(Cl)cc(Cl)c12)Nc1ccccc1,,inactive: 121%
CC1(C)O[C@H]2CC(=O)OC[C@]23[C@H]2CC[C@@]4(C)[C@H](c5ccoc5)OC(=O)[C@H]5O[C@]54[C@]2(C)C(=O)C[C@@H]13,,inactive: 118%
COc1c2occc2cc2ccc(=O)oc12,"inconclusive: 3.32 µM [inhibitor, full curve, poor fit]",
COc1ccccc1-c1cccc(-c2c(O)c3cc(C#N)c(Cl)cc3[nH]c2=O)c1,"inconclusive: 48.1 µM [inhibitor, partial curve]",
CC(C)c1ccccc1Cc1cc(C(=O)Nc2ccc(S(=O)(=O)c3ccccc3C(C)(C)C)cc2)c(O)c(O)c1O,active: 7.43 µM,
CC(C)c1nc(CN(C)C(=O)N[C@H](C(=O)N[C@@H](Cc2ccccc2)C[C@H](O)[C@H](Cc2ccccc2)NC(=O)OCc2cncs2)C(C)C)cs1,"inconclusive: 20.9 µM [inhibitor, single point]",
CC(C)(Oc1ccc(C2CC2(Cl)Cl)cc1)C(=O)O (stereo not drawn),"inconclusive: 60.5 µM [inhibitor, single point]",
CN(C)CCCNC(=O)c1ccc(-c2cc(O)c3ncccc3c2)cc1,"inconclusive: 16.6 µM [inhibitor, partial curve]",
COc1cccc(N(C)C(=S)Oc2ccc3c(c2)CCCC3)n1,,inactive: 99.2%
COc1nc(C)nc(Cl)c1NC1=NCCN1,,inactive: 124%
CCOC(=O)[C@H](CCc1ccccc1)N[C@H]1CCc2ccccc2N(CC(=O)O)C1=O,active: 20.9 µM,
